# In the supplement of paper PMC4967469:
# By IC50 is meant the dose at which the fit gives 50% viability; a limit (>, <) means that the fit lies beyond the doses tested. For AUC the same curve is integrated over the 256-fold range of doses and scaled to a fraction: 1 means no effect, lower means more sensitive. For some assays here: The top dose, if marked as inferred, was derived from the fitted curves, not read from the paper. For some assays here: Where an entry number is given, a second screen of the drug exists; the two often differ.
# Tests used:
# Assay in all cases: Viability of human cancer cell lines after 72 h of drug (GDSC screen)
# Epothilone B = compound: C/C(=C\c1csc(C)n1)[C@@H]1C[C@@H]2O[C@]2(C)CCC[C@H](C)[C@H](O)[C@@H](C)C(=O)C(C)(C)[C@@H](O)CC(=O)O1 [Epothilone B]; conditions: top dose 0.032 µM; top dose inferred
# Description: (§1)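 Human cancer cell lines in 384-well plates, medium with 10% serum, drug for 72 h over a 256-fold dose range (nine 2-fold or five 4-fold steps up to the top dose). Adherent lines were fixed and stained with the nucleic acid dye Syto60, suspension lines read with resazurin; signal relative to control wells, capped at 0 and 100%. One two-parameter sigmoid per drug and line, fitted in a mixed model over all curves with the slope shared within a line.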
# PHA-793887 = compound: CC(C)CC(=O)Nc1n[nH]c2c1CN(C(=O)C1CCN(C)CC1)C2(C)C [PHA-793887]; conditions: top dose 10.24 µM
# Description: as §1
# PLX4720 = compound: CCCS(=O)(=O)Nc1ccc(F)c(C(=O)c2c[nH]c3ncc(Cl)cc23)c1F [PLX4720]; conditions: top dose 10 µM
# Description: as §1
# Pyrimethamine = compound: CCc1nc(N)nc(N)c1-c1ccc(Cl)cc1 [Pyrimethamine]; conditions: top dose 20 µM; top dose inferred
# Description: as §1
# AZD-0530 = compound: CN1CCN(CCOc2cc(OC3CCOCC3)c3c(Nc4c(Cl)ccc5c4OCO5)ncnc3c2)CC1 [AZD-0530]; conditions: top dose 2 µM
# Description: as §1
# Y-39983 = compound: C[C@@H](N)c1ccc(C(=O)Nc2ccnc3[nH]ccc23)cc1 [Y-39983]; conditions: top dose 20 µM; top dose inferred
# Description: as §1
# TPCA-1 = compound: NC(=O)Nc1sc(-c2ccc(F)cc2)cc1C(N)=O [TPCA-1]; conditions: top dose 20 µM
# Description: as §1
# [1] = screen: GDSC drug entry 1371, top dose inferred
Cell Line,AUC (Epothilone B),IC50 (Epothilone B) [µM],AUC (PHA-793887),IC50 (PHA-793887) [µM],AUC (PLX4720; screen: GDSC drug entry 1036),IC50 (PLX4720; screen: GDSC drug entry 1036) [µM],AUC (PLX4720; [1]),IC50 (PLX4720; [1]) [µM],AUC (Pyrimethamine),IC50 (Pyrimethamine) [µM],AUC (AZD-0530),IC50 (AZD-0530) [µM],AUC (Y-39983),IC50 (Y-39983) [µM],AUC (TPCA-1),IC50 (TPCA-1) [µM]
"CP66-MEL (melanoma, adherent)",0.754,0.0121,0.973,> 10.2,0.867,> 10,0.852,9.44,0.979,> 20,0.984,> 2,0.98,> 20,0.979,> 20
"CPC-N (small cell lung carcinoma, suspension)",0.739,0.0104,0.588,1.14,0.928,> 10,0.932,> 10,0.845,16.5,0.973,> 2,0.947,> 20,0.852,17.8
"CTV-1 (acute myeloid leukaemia, suspension)",0.659,0.00502,0.501,0.642,0.975,> 10,0.992,> 10,0.628,2.61,0.383,0.064,0.923,> 20,0.718,4.45
"CW-2 (large intestine, adherent)",0.989,> 0.032,0.988,> 10.2,0.983,> 10,0.988,> 10,0.987,> 20,0.989,> 2,0.966,> 20,0.925,> 20
"Calu-6 (lung adenocarcinoma, adherent)",0.69,0.00741,0.828,7.6,0.984,> 10,0.926,> 10,0.944,> 20,0.963,> 2,0.952,> 20,0.86,> 20
"D-263MG (glioma, adherent)",0.819,0.0234,0.983,> 10.2,0.975,> 10,0.981,> 10,0.971,> 20,0.983,> 2,0.955,> 20,0.975,> 20
"D-283MED (medulloblastoma, adherent)",0.945,> 0.032,0.991,> 10.2,0.934,> 10,0.986,> 10,0.988,> 20,0.968,> 2,0.991,> 20,0.991,> 20
"DEL (lymphoid neoplasm, suspension)",0.581,0.00316,0.297,0.198,0.994,> 10,0.974,> 10,0.719,4.44,0.985,> 2,0.804,7.6,0.624,2.53
"DG-75 (Burkitt lymphoma, suspension)",0.909,> 0.032,0.78,4.26,0.817,5.68,0.94,> 10,0.862,17.4,0.987,> 2,0.961,> 20,0.893,> 20
"DJM-1 (skin, adherent)",0.581,0.00332,0.949,> 10.2,0.943,> 10,0.987,> 10,0.984,> 20,0.988,> 2,0.972,> 20,0.887,> 20
"DMS-79 (small cell lung carcinoma, suspension)",0.939,> 0.032,0.98,> 10.2,0.978,> 10,0.98,> 10,0.928,> 20,0.986,> 2,0.965,> 20,0.97,> 20
"DMS-114 (small cell lung carcinoma, adherent)",0.919,> 0.032,0.778,4.79,0.984,> 10,0.977,> 10,0.945,> 20,0.976,> 2,0.985,> 20,0.858,> 20
"DND-41 (T-cell leukaemia, suspension)",0.882,0.0269,0.388,0.327,0.989,> 10,0.975,> 10,0.769,6.71,0.978,> 2,0.813,9.26,0.308,0.389
"DSH1 (bladder, adherent)",0.952,> 0.032,0.932,> 10.2,0.966,> 10,0.988,> 10,0.711,4.79,0.972,> 2,0.989,> 20,0.905,> 20
"DU-4475 (breast, suspension)",0.515,0.00218,0.626,1.32,0.438,0.437,0.563,0.899,0.887,15.1,0.992,> 2,0.924,> 20,0.855,11.5
"Daudi (Burkitt lymphoma, suspension)",0.839,0.0179,0.596,1.13,0.985,> 10,0.99,> 10,0.924,> 20,0.968,> 2,0.911,> 20,0.852,12.5
"EB-3 (Burkitt lymphoma, suspension)",0.899,> 0.032,0.633,1.59,0.981,> 10,0.943,> 10,0.98,> 20,0.931,> 2,0.974,> 20,0.881,> 20
